PubChem BioAssay AID686979 (National Center for Advancing Translational Sciences (NCATS), 2013)
Where “and” joins values, the source holds several entries; their conditions need not be identical. Identical values can stand only once. Among all 420,000 compounds or so, about 50,000 (12%) were called active. The inconclusive results got no clear call from the source; some entries with a clear call stand among them for comparison. Calls follow the shape of the dose curve; as a rule, active = well fitted inhibition curve with a large enough effect; inconclusive = small, poorly fitted or top-dose-only effect; inactive = flat fitted curve, though single readings scatter. Potencies of inconclusive entries are left out as doubtful fits.

test: qHTS for Inhibitors of human tyrosyl-DNA phosphodiesterase 1 (TDP1): qHTS in cells in presence of CPT; conditions: chicken DT40 Tdp1-/-;hTDP1 cells + 20 nM CPT, ATP luminescence, 48 h; activity change, negative = growth inhibition: at 46.2 µM (top of the series); also: nearly all actives have a fitted effect of over 55% in size
Summary of the method: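 Chicken DT40 Tdp1-/- cells complemented with human TDP1, 400 cells/well, exposed to compounds plus 20 nM camptothecin for at least 48 h at 37 C; viability read as ATP content by CellTiter-Glo luminescence.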
% is scaled to controls: 0 for no effect and ±100 for the full control effect; potency is read from the fitted curve at half-maximal effect; tags tell the direction and shape of the fitted curve.

Question: With O=C(NNC(=O)c1ccc(Cl)cc1Cl)c1cnccn1 as the compound, how does the Potency read?
Answer: The Potency was inconclusive [inhibitor, single point].

Question: For CC(C)CC(=O)N1CCN(c2ccc(NC(=O)c3ccco3)cc2)CC1, which “activity change, negative = growth inhibition” value is on record?
Answer: The value was inactive: -2.75%.

Question: With C[C@@H]1CN([C@H](C)CO)C(=O)c2cc(NC(=O)Cc3cn(C)c4ccccc34)ccc2O[C@H]1CN(C)S(=O)(=O)c1ccc(F)cc1 as the compound, how does the Potency read?
Answer: Its Potency is inconclusive [inhibitor, single point].

Question: Which Potency does the source give for CCc1ccc(-c2nc(CN3CCCC(C(=O)NCc4ccccc4Cl)C3)c(C)o2)cc1 (stereo not given) here?
Answer: Its Potency is active: 6.51 µM.

Question: With COc1cc(OC)cc(C(=O)N(Cc2ccco2)Cc2cccs2)c1 as the compound, how does the Potency read?
Answer: The Potency was inconclusive [inhibitor, single point].

Question: For COCCC(=O)N1CCC(Oc2ccc(C(=O)N3CCCC(OC)C3)cc2)CC1 (stereo not given), which “activity change, negative = growth inhibition” value is on record?
Answer: Its value is inactive: -26.6%.

Question: Which “activity change, negative = growth inhibition” value does the source give for CC1C2=C(CC(C)(C)CC2=O)NC2=C1C(=O)CC(C)(C)C2 here?
Answer: The value was inactive: 2.22%.

Question: For Cc1ccccc1CSc1nc(C(C)(C)C)cc(=O)[nH]1, which “activity change, negative = growth inhibition” value is on record?
Answer: The value was inactive: -4.4%.

Question: Which Potency does the source give for OCC1(Cc2ccccc2)CCN(Cc2cc3ccccc3o2)CC1 here?
Answer: The Potency was inconclusive [inhibitor, partial curve].

Question: For Nc1ccc(CNC(=O)c2cc3cc(Cl)ccc3nc2N)cc1, which Potency is on record?
Answer: The Potency was inconclusive [inhibitor, partial curve].

Question: Which Potency does the source give for O=C(CN1C(=O)NC2(CCCC2)C1=O)Nc1cc(S(=O)(=O)N2CCCCC2)ccc1Cl here?
Answer: Its Potency is inconclusive [inhibitor, partial curve].

Question: For COc1cc2c(cc1OC)C(c1ccc(-c3ccc(Cl)c(Cl)c3)o1)=NCC2, which Potency is on record?
Answer: Its Potency is active: 1.26 µM and active: 4.11 µM.

Question: For O=C(O)Cc1ccc(NC(=O)c2ccc(Cl)c(Cl)c2)cc1, which “activity change, negative = growth inhibition” value is on record?
Answer: The value was inactive: 25.7%.

Question: With COc1ccc(C(NC(C)=O)c2cc(Cl)c3cccnc3c2O)cc1 (stereo not given) as the compound, how does the Potency read?
Answer: Its Potency is active: 8.2 µM.

Question: With Cc1ccc2c(c1)-c1nc(-c3ccccc3)cc(-c3ccccc3)c1CO2 as the compound, how does the “activity change, negative = growth inhibition” value read?
Answer: Its value is inactive: -28.9%.

Question: For Cc1ccc(S(=O)(=O)N2CCN(C(=O)c3ccnn3C)CC2)cc1C, which “activity change, negative = growth inhibition” value is on record?
Answer: Its value is inactive: 0.756%.

Question: With C/C(=N\Nc1cc(-c2ccccc2)nc(-c2ccc(Br)cc2)n1)c1cccc(N)c1 as the compound, how does the Potency read?
Answer: The Potency was active: 25.9 µM.

Question: With CCCN(CCC)S(=O)(=O)c1ccc(C(=O)N2CCC(=O)c3ccccc32)cc1 as the compound, how does the Potency read?
Answer: Its Potency is inconclusive [inhibitor, single point].

Question: With CCOC(=O)[C@]12CCC=C1N(Cc1cccc3ccccc13)C(=O)[C@H](CC(=O)NCC13CC4CC(CC(C4)C1)C3)C2 as the compound, how does the Potency read?
Answer: Its Potency is active: 20.6 µM.

Question: For CCOc1ccc(N(CC)S(=O)(=O)N2CCCC(C(=O)NCc3ccccc3OCC)C2)cc1 (stereo not given), which Potency is on record?
Answer: The Potency was inconclusive [inhibitor, partial curve, poor fit].

Question: With O=C(NCCc1csc(-c2cccc(F)c2)n1)c1ccco1 as the compound, how does the Potency read?
Answer: The Potency was inconclusive [inhibitor, single point].

Question: For Cc1nn2c(=O)cc(COC(=O)c3ccccc3NC(=O)C3CCCCC3)nc2s1, which “activity change, negative = growth inhibition” value is on record?
Answer: The value was inactive: 7.14%.

Question: Which “activity change, negative = growth inhibition” value does the source give for COc1ccc(Nc2nnc(SCC(=O)NC3CCS(=O)(=O)C3)s2)cc1 (stereo not given) here?
Answer: The value was inactive: -29.2%.

Question: With Cc1ccc(C)c(C(=O)OCC(=O)Nc2cccc(S(=O)(=O)N3CCCCC3)c2)c1 as the compound, how does the Potency read?
Answer: Its Potency is active: 18.4 µM.

Question: Which Potency does the source give for O=C(Nc1nnc(-c2ccc3c(c2)CCCC3)o1)C1COc2ccccc2O1 (stereo not given) here?
Answer: Its Potency is inconclusive [inhibitor, single point].

Question: With CCN(CC)S(=O)(=O)c1cc(C(=O)Oc2cccc(-c3cnc4ccccc4n3)c2)ccc1Br as the compound, how does the Potency read?
Answer: Its Potency is inconclusive [inhibitor, single point].

Question: For CCOC(=O)N1CCN(C(=O)c2ccc(N3C(=O)CCC3=O)cc2)CC1, which “activity change, negative = growth inhibition” value is on record?
Answer: The value was inactive: -1.03%.

Question: With Brc1cccc(-c2nnc(SCc3nc4ccccc4[nH]3)o2)c1 as the compound, how does the Potency read?
Answer: Its Potency is inconclusive [inhibitor, single point].

Question: Which “activity change, negative = growth inhibition” value does the source give for CCOc1cccc(/C=C(/C#N)c2nc3ccccc3[nH]2)c1OCC(=O)O here?
Answer: Its value is inactive: 14.5%.

Question: With CC(NC(=O)Nc1ccc(F)cc1F)c1ccc2c(c1)OCO2 (stereo not given) as the compound, how does the Potency read?
Answer: The Potency was inconclusive [inhibitor, single point].

Question: For C#CCN(N(C)c1ncc(C(F)(F)F)cc1Cl)S(=O)(=O)c1ccc2ccccc2c1, which “activity change, negative = growth inhibition” value is on record?
Answer: The value was inactive: -15.9%.

Question: With CC(C)c1ccc(/C=N/NC(=O)c2ccccc2Cl)cc1 as the compound, how does the Potency read?
Answer: The Potency was active: 4.11 µM.

Question: Which Potency does the source give for O=S(=O)(NCCc1ccccc1F)c1cccc(S(=O)(=O)N2CCOCC2)c1 here?
Answer: Its Potency is inconclusive [inhibitor, single point].

Question: Which “activity change, negative = growth inhibition” value does the source give for N#C/C(=C\c1ccc(N2CCCC2)c([N+](=O)[O-])c1)c1nc2ccccc2[nH]1 here?
Answer: The value was inactive: -1.33%.

Question: Which Potency does the source give for COc1ccc(NC(=O)c2sc(=O)n(Cc3ccc(F)c(Cl)c3)c2C)cc1OC here?
Answer: The Potency was active: 23.1 µM.

Question: With COc1cc(C(=O)N(CCCN(C)C)c2nc3c(OC)cccc3s2)cc(OC)c1OC as the compound, how does the Potency read?
Answer: The Potency was inconclusive [inhibitor, single point].

Question: Which Potency does the source give for Cc1ccc(S(=O)(=O)N2[C@@H](c3ccc(Cl)c(Cl)c3)C(C(=O)O)=C[C@H]2C(C)(C)C)cc1 here?
Answer: The Potency was inconclusive [inhibitor, single point].

Question: Which Potency does the source give for O=C(CSCC(=O)c1ccc([N+](=O)[O-])cc1)c1ccc([N+](=O)[O-])cc1 here?
Answer: Its Potency is active: 20.6 µM.

Question: Which Potency does the source give for CCCn1c(NC(=O)c2ccc([N+](=O)[O-])o2)nc2ccccc21 here?
Answer: The Potency was active: 20.6 µM.

Question: For CCOC(=O)C1C(=O)OC(C)(C)C1C(C)C(=O)c1ccc(C)cc1C (stereo not given), which Potency is on record?
Answer: Its Potency is inconclusive [inhibitor, single point].

Question: Which “activity change, negative = growth inhibition” value does the source give for Cc1nn(CC(=O)NC(C)c2ccccc2)c(=O)c2cc3occc3n12 (stereo not given) here?
Answer: Its value is inactive: -18.9%.

Question: Which Potency does the source give for CN1CCN(c2ncc3nc(CCc4ccccc4)c(=O)n(Cc4ccc(F)cc4)c3n2)CC1 here?
Answer: The Potency was inconclusive [inhibitor, single point].

Question: For COc1cccc2c1Oc1ncccc1N(C(=O)CCC(=O)NCc1ccc(OC(C)C)cc1)C2, which Potency is on record?
Answer: The Potency was inconclusive [inhibitor, single point].

Question: For C(=C\c1nc2ccccc2nc1/C=C/c1ccc2c(c1)OCO2)/c1ccc2c(c1)OCO2, which Potency is on record?
Answer: The Potency was inconclusive [inhibitor, partial curve, poor fit].

Question: With COCc1cc(C)nc2sc(C(=O)Nc3nccs3)c(N)c12 as the compound, how does the Potency read?
Answer: Its Potency is inconclusive [inhibitor, single point].
